# The other results are listed elsewhere or left out.
# Assays:
# Assay in all cases: glycan array binding signal (z-score within array); higher = stronger binding
# Settings in all cases: glycan notation: IUPAC condensed, linker removed
# [1] = target: Gal(b1-4)GlcNAc(b1-6)[Gal(b1-3)]GalNAc
# Procedure, shortened: (§1)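 Negative Z-scores can be read as non-binding. The Z-score is calculated within each array and then averaged across arrays of one protein sequence at different concentrations or buffers and across linkers. Arrays, 3228 in all, were curated from the Consortium for Functional Glycomics database and kept only where the protein sequence was available.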
# Gal(b1-6)Gal = target: Gal(b1-6)Gal
# Procedure, shortened: as §1
# Gal3S(b1-3)GalNAc = target: Gal3S(b1-3)GalNAc
# Procedure, shortened: as §1
# Gal3S(b1-3)GlcNAc = target: Gal3S(b1-3)GlcNAc
# Procedure, shortened: as §1
# [2] = target: Gal3S(b1-3)[Fuc(a1-4)]GlcNAc
# Procedure, shortened: as §1
# Gal3S(b1-4)Glc = target: Gal3S(b1-4)Glc
# Procedure, shortened: as §1
# Gal3S(b1-4)Glc6S = target: Gal3S(b1-4)Glc6S
# Procedure, shortened: as §1
# Gal3S(b1-4)GlcNAc = target: Gal3S(b1-4)GlcNAc
# Procedure, shortened: as §1
# Gal3S(b1-4)GlcNAc6S = target: Gal3S(b1-4)GlcNAc6S
# Procedure, shortened: as §1
# [3] = target: Gal3S(b1-4)[Fuc(a1-3)]Glc
# Procedure, shortened: as §1
# [4] = target: Gal3S(b1-4)[Fuc(a1-3)]Glc6S
# Procedure, shortened: as §1
# Gal3S4S(b1-4)GlcNAc = target: Gal3S4S(b1-4)GlcNAc
# Procedure, shortened: as §1
# Gal3S6S(b1-4)GlcNAc = target: Gal3S6S(b1-4)GlcNAc
# Procedure, shortened: as §1
# Gal3S6S(b1-4)GlcNAc6S = target: Gal3S6S(b1-4)GlcNAc6S
# Procedure, shortened: as §1
# Gal4S(b1-4)GlcNAc = target: Gal4S(b1-4)GlcNAc
# Procedure, shortened: as §1
# Gal4S6S(b1-4)GlcNAc = target: Gal4S6S(b1-4)GlcNAc
# Procedure, shortened: as §1
# Gal6S(b1-3)GlcNAc = target: Gal6S(b1-3)GlcNAc
# Procedure, shortened: as §1
# Gal6S(b1-3)GlcNAc6S = target: Gal6S(b1-3)GlcNAc6S
# Procedure, shortened: as §1
# Gal6S(b1-4)Glc = target: Gal6S(b1-4)Glc
# Procedure, shortened: as §1
# Gal6S(b1-4)Glc6S = target: Gal6S(b1-4)Glc6S
# Procedure, shortened: as §1
# Gal6S(b1-4)GlcNAc = target: Gal6S(b1-4)GlcNAc
# Procedure, shortened: as §1
# Gal6S(b1-4)GlcNAc6S = target: Gal6S(b1-4)GlcNAc6S
# Procedure, shortened: as §1
# GalNAc(a1-3)Gal = target: GalNAc(a1-3)Gal
# Procedure, shortened: as §1
# GalNAc(a1-3)GalNAc = target: GalNAc(a1-3)GalNAc
# Procedure, shortened: as §1
# [5] = target: GalNAc(a1-3)GalNAc(a1-3)Gal(a1-4)Gal(b1-4)GlcNAc
# Procedure, shortened: as §1
# [6] = target: GalNAc(a1-3)GalNAc(b1-3)Gal(a1-4)Gal(b1-4)Glc
# Procedure, shortened: as §1
# GalNAc(b1-3)Gal = target: GalNAc(b1-3)Gal
# Procedure, shortened: as §1
# [7] = target: GalNAc(b1-3)Gal(a1-4)Gal(b1-4)GlcNAc
# Procedure, shortened: as §1
# [8] = target: GalNAc(b1-3)Gal(a1-4)Gal(b1-4)GlcNAc(b1-3)Gal(b1-4)Glc
# Procedure, shortened: as §1
# [9] = target: GalNAc(b1-3)Gal(a1-6)Gal(b1-4)Glc
# Procedure, shortened: as §1
# GalNAc(b1-3)GalNAc = target: GalNAc(b1-3)GalNAc
# Procedure, shortened: as §1
# GalNAc(b1-4)GlcNAc = target: GalNAc(b1-4)GlcNAc
# Procedure, shortened: as §1
# [10] = target: GalNAc(b1-4)GlcNAc(b1-2)Man(a1-3)[GalNAc(b1-4)GlcNAc(b1-2)Man(a1-6)]Man(b1-4)GlcNAc(b1-4)GlcNAc
# Procedure, shortened: as §1
# GalNAc(b1-6)GalNAc = target: GalNAc(b1-6)GalNAc
# Procedure, shortened: as §1
# Glc(a1-4)Glc = target: Glc(a1-4)Glc
# Procedure, shortened: as §1
# Glc(a1-6)Glc(a1-6)Glc = target: Glc(a1-6)Glc(a1-6)Glc
# Procedure, shortened: as §1
# Glc(b1-4)Glc = target: Glc(b1-4)Glc
# Procedure, shortened: as §1
binder,measurement,setting,value
Gal 4 (Canis lupus) (protein) MAYVPAPGYQPTYNPTLPYNKPIPGGLSVGMSVYIQGITSEHMRRFCVNFVAGAHPGSDIAFHFNPRFDGWDKVVFNSHLGGKWGSEEKKRSMPFRKGTHFELVFMVLAEHYKVVVNGNPFYEFGHRLPLQLVTHLQVEGDVELQSINFIGGTQPLGQGPGHTQQQPSSLPTMEGPPVFNPPVPFRKRLQGGLTVRRTVIIKGFVPFTSKSFVINFMVESSGDLALHINPRLTEGLVVRNSCLNGSWGSEDRKLSYNPFIPGQFFDLSIRCGMDRFKVYANGQHLFDFSHRLLALQNVDMLEINGDVTLSYIQV,glycan array binding signal (z-score),[1],-0.146
same,glycan array binding signal (z-score),Gal(b1-6)Gal,-0.147
same,glycan array binding signal (z-score),Gal3S(b1-3)GalNAc,-0.122
same,glycan array binding signal (z-score),Gal3S(b1-3)GlcNAc,-0.111
same,glycan array binding signal (z-score),[2],-0.149
same,glycan array binding signal (z-score),Gal3S(b1-4)Glc,-0.133
same,glycan array binding signal (z-score),Gal3S(b1-4)Glc6S,0.538
same,glycan array binding signal (z-score),Gal3S(b1-4)GlcNAc,-0.15
same,glycan array binding signal (z-score),Gal3S(b1-4)GlcNAc6S,-0.102
same,glycan array binding signal (z-score),[3],-0.149
same,glycan array binding signal (z-score),[4],-0.137
same,glycan array binding signal (z-score),Gal3S4S(b1-4)GlcNAc,-0.152
same,glycan array binding signal (z-score),Gal3S6S(b1-4)GlcNAc,-0.153
same,glycan array binding signal (z-score),Gal3S6S(b1-4)GlcNAc6S,-0.153
same,glycan array binding signal (z-score),Gal4S(b1-4)GlcNAc,-0.144
same,glycan array binding signal (z-score),Gal4S6S(b1-4)GlcNAc,-0.144
same,glycan array binding signal (z-score),Gal6S(b1-3)GlcNAc,-0.135
same,glycan array binding signal (z-score),Gal6S(b1-3)GlcNAc6S,-0.133
same,glycan array binding signal (z-score),Gal6S(b1-4)Glc,-0.149
same,glycan array binding signal (z-score),Gal6S(b1-4)Glc6S,-0.148
same,glycan array binding signal (z-score),Gal6S(b1-4)GlcNAc,-0.157
same,glycan array binding signal (z-score),Gal6S(b1-4)GlcNAc6S,-0.154
same,glycan array binding signal (z-score),GalNAc(a1-3)Gal,-0.137
same,glycan array binding signal (z-score),GalNAc(a1-3)GalNAc,-0.135
same,glycan array binding signal (z-score),[5],-0.14
same,glycan array binding signal (z-score),[6],-0.139
same,glycan array binding signal (z-score),GalNAc(b1-3)Gal,-0.15
same,glycan array binding signal (z-score),[7],-0.144
same,glycan array binding signal (z-score),[8],-0.147
same,glycan array binding signal (z-score),[9],-0.154
same,glycan array binding signal (z-score),GalNAc(b1-3)GalNAc,-0.146
same,glycan array binding signal (z-score),GalNAc(b1-4)GlcNAc,-0.145
same,glycan array binding signal (z-score),[10],-0.13
same,glycan array binding signal (z-score),GalNAc(b1-6)GalNAc,-0.144
same,glycan array binding signal (z-score),Glc(a1-4)Glc,-0.152
same,glycan array binding signal (z-score),Glc(a1-6)Glc(a1-6)Glc,-0.139
same,glycan array binding signal (z-score),Glc(b1-4)Glc,-0.146
